The values below come from PubChem BioAssay (NCI).

The subject of the assay is NCI-H322M lung. Put plainly: NCI-60 cell line screen, 48 h.

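96-well plates; 48 h exposure; 5 concentrations. Endpoints by linear interpolation between flanking doses. Not reached: highest tested concentration assigned. GI50: concentration for 50% inhibition of growth. The concentration for full growth arrest is given as TGI.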

As for `NCCN1CCN(c2nc(-c3ccccc3)nc3nc(-c4ccccc4)oc23)CC1`, the GI50 was 1720 nM and the TGI was found to be 3.14 µM.
The corresponding values for `Fc1ccc(-c2cc3nc(C(Cl)Cl)nc(-c4ccc(Cl)cc4)n3n2)cc1` are 2080 nM and 5.9 µM.
